The list shows a part of the results.
test system: HSkMC (human skeletal muscle cells); experiment: cytotoxicity call (relative viability < 0.9); details: 10 µM

Row | SMILES | cytotoxicity call
1 | CO[C@H]1CN(C)C(=O)c2ccc(NC(=O)C3CC3)cc2OC[C@H](C)N(C(=O)Cc2ccccn2)C[C@H]1C | inactive
2 | C[C@H]1CN([C@@H](C)CO)C(=O)c2cccc(NC(=O)C3CC3)c2O[C@@H]1CN(C)Cc1ccc(C(=O)O)cc1 | inactive
3 | C[C@@H]1CN([C@@H](C)CO)C(=O)c2cc(NC(=O)c3ccncc3)ccc2O[C@@H](C)CCCCO[C@@H]1CN(C)Cc1ccccc1 | inactive
4 | C[C@@H]1CN(CC(=O)N2CC(C)(C)c3nc(CO)c(Cc4ccc(F)cc4)cc32)[C@@H](CN2CCOC[C@H]2C)CN1 | inactive
5 | C=CCOC(=O)[C@@H]1[C@@H]2C=C[C@]3(O2)[C@H](C(=O)N(CC=C)Cc2ccccc2)N(c2cccc(Cl)c2CO)C(=O)[C@@H]13 | inactive
6 | C[C@@H]1CN([C@H](C)CO)C(=O)c2cc(-c3cccnc3)cnc2O[C@@H]1CN(C)Cc1ccc(Oc2ccccc2)cc1 | inactive
7 | CO[C@H](CN(C)S(=O)(=O)c1cccc(Cl)c1)[C@@H](C)CN([C@H](C)CO)S(=O)(=O)c1cccc(Cl)c1 | inactive
8 | C[C@@H]1CN([C@H](C)CO)C(=O)c2cc(NC(=O)c3ccccc3)ccc2O[C@@H](C)CCCCO[C@@H]1CN(C)S(=O)(=O)c1ccc(Cl)cc1 | inactive
9 | CC(C)NC(=O)Nc1ccc2c(c1)C(=O)N([C@@H](C)CO)C[C@H](C)[C@H](CN(C)S(=O)(=O)c1ccccc1)O2 | inactive
10 | C[C@H]1CN([C@@H](C)CO)C(=O)c2cc(NC(=O)Cc3ccccc3)ccc2O[C@H]1CN(C)Cc1ccc(Cl)c(Cl)c1 | inactive

From the antibiotic and cytotoxicity screens of Wong et al. (2023)
